Laboratory results published in publication PMC4336329 (PLoS ONE, 2015).
Screen size: about 310,000 compounds; about 14,000 (4.5%) showed an effect of 50% or more. The effect is printed as a negative number. Some of the results follow.

Target: human ether-à-go-go-related gene (hERG) potassium channel (human, UniProt Q12809)
Experiment: primary screen, population patch clamp on CHO cells stably expressing hERG
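Further: peak tail current of the secondary pulse compared with the same well before compound.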

human ether-à-go-go-related gene (hERG) potassium channel, sequence (Q12809 whole entry, looked up): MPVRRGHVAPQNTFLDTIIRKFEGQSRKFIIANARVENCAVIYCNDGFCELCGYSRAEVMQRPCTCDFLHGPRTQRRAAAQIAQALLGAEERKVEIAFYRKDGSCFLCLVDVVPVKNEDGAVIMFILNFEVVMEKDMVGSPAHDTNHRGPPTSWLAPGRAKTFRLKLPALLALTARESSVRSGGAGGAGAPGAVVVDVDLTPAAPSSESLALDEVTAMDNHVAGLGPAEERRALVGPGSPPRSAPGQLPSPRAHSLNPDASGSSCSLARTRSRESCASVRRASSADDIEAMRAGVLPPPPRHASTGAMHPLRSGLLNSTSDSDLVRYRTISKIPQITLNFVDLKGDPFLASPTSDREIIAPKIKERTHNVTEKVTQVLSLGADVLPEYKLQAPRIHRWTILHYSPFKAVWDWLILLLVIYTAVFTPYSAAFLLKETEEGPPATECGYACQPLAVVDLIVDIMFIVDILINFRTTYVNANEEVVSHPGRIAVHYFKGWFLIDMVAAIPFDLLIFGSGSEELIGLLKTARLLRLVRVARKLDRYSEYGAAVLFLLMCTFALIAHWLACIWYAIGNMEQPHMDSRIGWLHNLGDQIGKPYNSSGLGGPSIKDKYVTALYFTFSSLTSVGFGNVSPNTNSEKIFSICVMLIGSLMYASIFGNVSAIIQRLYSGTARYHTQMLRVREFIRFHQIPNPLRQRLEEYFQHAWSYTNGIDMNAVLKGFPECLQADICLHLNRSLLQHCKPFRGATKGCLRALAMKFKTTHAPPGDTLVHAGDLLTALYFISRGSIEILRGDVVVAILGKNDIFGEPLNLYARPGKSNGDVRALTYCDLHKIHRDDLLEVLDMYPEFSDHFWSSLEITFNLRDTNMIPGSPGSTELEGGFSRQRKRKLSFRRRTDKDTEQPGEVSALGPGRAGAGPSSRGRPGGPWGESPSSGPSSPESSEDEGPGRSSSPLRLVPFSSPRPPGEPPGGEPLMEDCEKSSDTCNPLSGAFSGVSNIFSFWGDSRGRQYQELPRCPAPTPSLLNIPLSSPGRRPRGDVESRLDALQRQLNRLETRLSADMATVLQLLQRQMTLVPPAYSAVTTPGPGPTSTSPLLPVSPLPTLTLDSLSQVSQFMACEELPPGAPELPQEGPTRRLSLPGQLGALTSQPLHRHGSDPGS

| SMILES | hERG current change (%, negative = inhibition) at 10uM |
| --- | --- |
| S=c1[nH]nc(C2COc3ccccc3O2)o1 (stereo not drawn) | 11.7% |
| O=C(N/N=C/c1ccccc1OC(F)F)NC1CCCCC1 | 13.8% |
| Cc1ccc(/C=N/NC(=O)c2cc3ccccc3cc2O)o1 | -21.4% |
| Cc1ccc(-c2nc3s/c(=C\c4ccco4)c(=O)n3n2)cc1 | 6.09% |
| COc1ccccc1NC(=O)CCC(=O)Nc1nnc(C2CCCCC2)s1 | 12.5% |
| CCOC(=O)N1CCN(S(=O)(=O)c2ccc(OC)c(Br)c2)CC1 | -7.9% |
| CCC(C)[C@H](NC(=O)Nc1ccccc1F)C(=O)O (stereo partly drawn) | 16.6% |
| CC1CC(C)CN(CCCNC(=O)Cn2ncn3cccc3c2=O)C1 (stereo not drawn) | -3.29% |
| CCCNC(=O)CCn1nc(-c2ccc(C)cc2)c2ccccc2c1=O | -12.5% |
| COc1ccc2c(=O)c3c(=O)n(-c4ccc(C)cc4)c(-c4ccccc4)nc3oc2c1 | 6.84% |
| CN(C)N1C(N)=C(C#N)C(c2cccc(Cl)c2)C2=C1CCCC2=O (stereo not drawn) | -26.2% |
| CC1CCCC(C)N1CCCNC(=O)c1csc2c1CCCCC2 (stereo not drawn) | -49.3% |
| CNC(=S)N(CCc1c(C)[nH]c2ccc(C)cc12)Cc1cccnc1 | -28.2% |
| C#CCOCCOCCOCCNc1nc(N2CCN(C(=O)CCCCCCCCCCNC(=O)[C@H](CCCCN)n3cc(C[C@@H](C)CC)nn3)CC2)nc(N2CCN(C(=O)CCCCCCCCCCNC(=O)[C@@H]([C@H](C)O)n3cc(C)nn3)CC2)n1 | 0.408% |
| Cc1ccc(C)c(NC(NC(=O)c2ccccn2)C(Cl)(Cl)Cl)c1 (stereo not drawn) | 15.7% |
| Cl.Fc1ccc(C(c2nnnn2C2CCCC2)N2CCN(Cc3ccncc3)CC2)cc1 (stereo not drawn) | -24.8% |
| CCOC(=O)c1[nH]nc(-c2c(O)cc(C)cc2O)c1-c1csc(C)n1 | 11.3% |
| Nc1nc2ccccc2n1CCN1CCCC1 | 6.04% |
| Cc1cnc(C(=O)Nc2ccccc2C(=O)N2CCOCC2)cn1 | 10.8% |
| COC(=O)c1ccc(-c2c(-c3ccccc3)ncc3cc(F)ccc23)cc1 | 7.97% |
| COc1cccc(C(=O)Nc2ncc3c(n2)CC(C)CC3=O)c1 (stereo not drawn) | 7.13% |
| Cc1cc[n+](CC(=O)c2ccc(NC(=O)c3ccccc3)cc2)c2ccccc12.[Br-] | 7.1% |

| SMILES | hERG current change (%, negative = inhibition) at 10uM |
| --- | --- |
| CCc1nc(SCC(=O)c2ccc(Cl)s2)c2oc3ccccc3c2n1 | 8.88% |
| NS(=O)(=O)c1ccc(CNS(=O)(=O)c2cccc3nonc23)cc1 | 16.6% |
| COc1ccc(NC(=O)CNC(=O)Cn2ccc3ccccc3c2=O)c(OC)c1 | 15% |
| COc1ccc(/C=C2\SC(=O)N(CCCC(=O)Nc3ccc(C(=O)O)cc3)C2=O)cc1OC | 3.58% |
| O=C(COC(=O)c1ccc(Cl)c(S(=O)(=O)N2CCCC2)c1)NCc1cccs1 | -39.8% |
| COc1cccc(C(c2nnnn2Cc2ccco2)N2CCN(c3cccc(C)c3C)CC2)c1OC (stereo not drawn) | -3.28% |
| CC(C)NC(=O)CCCc1cn(C)c2ccccc12 | 18.1% |
| O=C(NC(Cc1c[nH]c2ccccc12)C(=O)N/N=C/c1ccc(Br)cc1)c1cccs1 (stereo not drawn) | 8.02% |
| CCCCC#Cc1ccccc1CC(=O)Nc1ccccc1 | 3.96% |
| NC(=O)C(=O)N/N=C/c1c[nH]c2ccc(Br)cc12 | 12.7% |
| COc1cccc(N2CCN(C(=O)CN(c3cc(C)cc(C)c3)S(=O)(=O)c3c(C)noc3C)CC2)c1 | -0.0706% |
| Cc1cc(S(=O)(=O)Nc2ccc(C(=O)N3CCN(c4ccccc4O)CC3)cc2)ccc1F | -5.37% |
| O=C(Nc1ccccc1)N(Cc1ccccc1)Cc1ccccc1 | -12.4% |
| CCNc1c(NCC)c(=O)c1=O | 15.2% |
| Cc1nnc(SCC(=O)NC2CCCC2)n1-c1ccccc1 | 1.21% |
| CC(C)N1CCC(N2CCN(Cc3cnc(-c4ccccc4)s3)CC2CCO)CC1 (stereo not drawn) | -15.6% |
| CC(C)CNC(=S)N(Cc1ccco1)Cc1cc2cc3c(cc2[nH]c1=O)OCCO3 | 3.92% |
| Cc1ccc(S(=O)(=O)Cc2ccccc2Cl)cc1 | -23.5% |
| O=C(/C=C/c1cccc([N+](=O)[O-])c1)OCC(=O)N1CCOCC1 | 8.64% |
| NC(=O)c1cn(-c2ccccc2)nc1-c1cccnc1 | -1.67% |
| CCc1cc(/C(Cc2ccccn2)=N\O)c(O)cc1O | 2.46% |
| CC(OC(=O)c1nsc(Cl)c1Cl)C(=O)NCc1ccco1 (stereo not drawn) | 14% |

| SMILES | hERG current change (%, negative = inhibition) at 10uM |
| --- | --- |
| Cc1ccc(SC(C)C(=O)NCCC2=CCCCC2)cc1 (stereo not drawn) | -26.9% |
| COc1ccc2nc(Cl)c(C3CC(c4ccco4)=NN3C(=O)CCCC(=O)O)cc2c1 (stereo not drawn) | 7.6% |
| O=C(CSc1nc2ccccc2o1)N1CCN(c2ccccc2)CC1 | 17.2% |
| CCOP(=O)(c1ccccc1Cl)C1(O)CCCCC1 (stereo not drawn) | -3.31% |
| Cc1cc(N/N=C/c2ccc(O)cc2)c2cccc(C)c2n1 | -51.6% |
| CC(=O)N(C)Cc1ccc(C(=O)CSc2nnc(C3CC3)n2C2CC2)cc1 | -8% |
| N#CC1(NC(=O)COC(=O)/C=C/c2ccc3ccccc3n2)CCCCC1 | 14.7% |
| COc1ccc(OC)c(NC(=O)CSc2nc3ccccc3c(=O)n2CC2CCCO2)c1 (stereo not drawn) | -41.2% |
| COc1ccccc1NC(=O)c1ccc(Br)o1 | -6.16% |
| Cc1c(C(=O)NCCN2CCOC2=O)oc2c(F)cccc12 | 11.8% |
| COc1cc(C(C[N+](=O)[O-])c2c(N)n(C)c(=O)n(C)c2=O)ccc1O (stereo not drawn) | 8.05% |
| Cc1ccccc1NS(=O)(=O)c1cc(C(=O)N2CCCC2)ccc1Cl | 1.08% |
| CN(C)C1(CNC(=S)Nc2ccccc2C(F)(F)F)CCCCC1 | -19.2% |
| Cc1cc(CNCc2cn(C)nc2-c2ccc(Oc3ccccc3)cc2)on1 | -14% |
| CCn1cc(SCC(=O)N2CCc3ccccc32)c2ccccc21 | -1.74% |
| COc1ccc(/C=C2\SC(=S)N(CC(=O)OCC(=O)Nc3cc(Cl)cc(Cl)c3)C2=O)cc1 | 2.69% |
| CCOc1ccc(N2C(=O)c3ccccc3NC2(C)CC)cc1 (stereo not drawn) | 4.89% |
| COC(=O)c1ccccc1NC(=O)CSc1nnnn1-c1ccc(C)cc1C | 10.3% |
| O=C(COc1ccc(/C=C2/NC(=O)NC2=O)cc1)Nc1ccc(F)cc1 | 22.6% |
| O=C(CN1CCN(Cc2ccccc2)CC1)N/N=C\C=C/c1ccco1 | -26.9% |
| COc1ccc(C2=NN(CN3C(=O)C(=O)c4ccccc43)C(c3cccc([N+](=O)[O-])c3)C2)cc1 (stereo not drawn) | 5.67% |
| Nc1nc2ccccc2n1/N=C/c1cccnc1 | 2.44% |

| SMILES | hERG current change (%, negative = inhibition) at 10uM |
| --- | --- |
| CC1=C(C(=O)Nc2ccccn2)C(c2ccc(Cl)cc2Cl)NC(=S)N1 (stereo not drawn) | -3.69% |
| COc1ccc2cc(C(C)C(=O)OC(C)C)ccc2c1 (stereo not drawn) | 5% |
| CC(C)[C@H](NC(=O)c1ccccc1)C(=O)OCC(=O)Nc1ccc2c(c1)OCCO2 | -0.724% |
| CS(=O)(=O)c1ccc2nc(NC(=O)c3ccc(NS(=O)(=O)c4ccc(F)c(F)c4)cc3)sc2c1 | 16% |
| Cc1noc(C)c1-c1nc(CS(=O)(=O)c2ccc(F)cc2)no1 | 8.83% |
| CCOc1ccccc1C(=O)N1CCC(n2nnc3cc(C(F)(F)F)ccc32)CC1 | -60% |
| Cc1ccc(S(=O)(=O)NCC(=O)OC(C(=O)c2ccccc2)c2ccccc2)cc1 (stereo not drawn) | 3.13% |
| S=C(NCc1ccccc1)Nc1cccc(Cl)c1 | -14.6% |
| COc1ccc(NC2CCN(C3CC(=O)N(c4ccc(F)c(Cl)c4)C3=O)CC2)cc1 (stereo not drawn) | -54.8% |
| COc1cccc(N2CCN(C(=O)C3CCN(S(=O)(=O)c4cccs4)CC3)CC2)c1 | -7.28% |
| CN(C)CCN(C(=O)CCS(=O)(=O)c1ccccc1)c1nc2cc3c(cc2s1)OCO3.Cl | 7.43% |
| c1ccc(-c2nnc(-c3ccco3)o2)cc1 | 0.407% |
| CC(O)CNc1nc2ccccc2n1CC(=O)NCCc1ccc(Cl)cc1 (stereo not drawn) | -11.8% |
| CCN(CC(=O)NCc1ccc(Cl)cc1)C(=O)CSCC(=O)Nc1ccc(C)cc1 | -77.9% |
| O=C1C=C(c2cccc(CO)c2)C[C@@H](c2ccc(F)cc2)C1 | -45.3% |
| N#C/C(=C/c1ccc(C(=O)O)cc1)C(=O)NCc1ccccc1 | -6.97% |
| O=C(Oc1cccc(C(=S)N2CCCCC2)c1)c1ccccc1 | 19.1% |
| CCN(CC)CCn1c2ccccc2c2n[nH]c(=S)nc21 | -4.86% |
| CC1=C(C#N)C(c2cccnc2)C2=C(N1)c1ccccc1C2=O (stereo not drawn) | -4.63% |
| NS(=O)(=O)c1cccc(-n2cnnn2)c1 | -6.93% |
| Cn1c(-c2ccc(C(C)(C)C)cc2)n[nH]c1=S | 19.2% |
